The chains are these.
B1: LINE1-full (parent)
chain: UACGUAGGUGGUUUUCCCCUGAUAGUGCUAAGGGGGCCUGGAAGUUUGGACUGGGCAGAGCUCAACACAGCGUGGCAAAGUGGCUGUGGCUAGACUGCCUCUCUGGAUUCCUCGUCACUCAGCAGGGCAUCUCUGAGAGAAAUGCC

The source gives no read counts; variants with many changes may rest on few reads.

In the data set the parent is B1. The data set can be described thus: self-cleavage, relative activity (ratio to wild type); higher = more cleavage; in vitro, sequencing; the parent is a self-cleaving ribozyme.
Regarding U12G U52A A92G A140G, the self-cleavage stood at 0.16. Turning to U12G C51U A136U, the self-cleavage is 1.39. For the variant U12G U13G U87A A121G, the self-cleavage amounted to 0.29. Take U12C U39A A69G A107U G135A A141G: the self-cleavage was 0.88. With U12G G55A A69U C95U U130C the figure was 0.05.

U13A A30G A42G: the self-cleavage came out at 0.61.

Take U12G U13C A140G: the self-cleavage is 0.48.

For the variant U13A U26A A77U, the self-cleavage was 1.25. As for U13A A42G U46A G53A U85C A124U, the self-cleavage was determined as 0.04.

Consider U13A U39A C71U A142G, for which the self-cleavage was 0.62. Regarding U13A U20C U26C A42G C71U U96C G97A, the self-cleavage came out at 0.05. As for U12C U62C A67G, the self-cleavage was 0. As to U12G U20C A107G C111U, the self-cleavage is 1.48. In the case of U12G G75A A124U G135A A140G it was 1.7; in that of U12G U29C G80U U100A A107G C123U, 0.94. For the variant U13A G32A U45C, the self-cleavage stood at 1.31. As for U12C U47C A69G A129U, the self-cleavage came to 0.33.

Turning to U13C A30G A50G, the self-cleavage was 0.3.

As to U12C U102A U109C A138G, the self-cleavage was determined as 2.42.

U12G U46C A57U U73A A77C U102C: the self-cleavage turned out to be 0. For U13A U47C A140G, the self-cleavage came to 0. Regarding U12C U62A U85C, the self-cleavage was determined as 0.1. In the case of U12C U26A U102C U104C A141G, the self-cleavage was 0.45.

With U13A U46C U62C, the self-cleavage came to 0.03. Consider U12C G105A U109C A121U, for which the self-cleavage amounted to 1.58. For the variant U12G U20G G86A, the self-cleavage was 0.14. For U12G U39C U109C C128U, the self-cleavage turned out to be 1.28.

U12G C51U U104A: the self-cleavage was determined as 1.58. In the case of U12C U13G A136C it was 0; in that of U12C U39A U115A, 1.41. U12C U15C C113G: the self-cleavage turned out to be 2.3.

Take U12C U115C A124U A141G A142C: the self-cleavage was found to be 0.

In the case of U13A U23G C113A, the self-cleavage amounted to 0.55. As for U13A A77G A138G, the self-cleavage was 2.45. As to U13A C84U U109C, the self-cleavage worked out at 0.1.

Take U12C U20C G49A: the self-cleavage was determined as 1.04. Regarding U12C U20A U109C, the self-cleavage turned out to be 1.47. For U13A A77G U85A U100C U102C, the self-cleavage is 0.21. Turning to U13A A22G A78U A94G A121U, the self-cleavage stood at 0.26. U13A A22U U108C U132C: the self-cleavage was 1.22. With U13C A22G U47A, the self-cleavage turned out to be 1.36. Take U12C U73A A94U U109C C123U A124G A140G: the self-cleavage was 0.7. Turning to U12C U47C U85A U130C A142G, the self-cleavage came to 0. In the case of U12C U14C U100C, the self-cleavage was determined as 0.72.

Regarding U13A G25U A57U U87C U119A A124G, the self-cleavage is 0.14. For the variant U12G G40A A69G, the self-cleavage amounted to 0.72.

Regarding U12C U15A A142G, the self-cleavage is 1.45. With U13A U85A A107C A138G A141G the figure was 0.11.

As to U12C U23A U39C, the self-cleavage was found to be 1.41. In the case of U13A G54A U134C it was 0.57; in that of U13C A24G A78U, 2.45. Take U12G A22U U102C A107G A142G: the self-cleavage came out at 0. U12G A94G U134C A136G: the self-cleavage is 0.38. With U12C U85C A140G the figure was 0; with U12G C68U U112A, 0.32. As for U12C U47A G70A A94G A142G, the self-cleavage turned out to be 0.01. U13C A22G U132C A140G: the self-cleavage was 0.73. In the case of U12C U119C U134A it was 1.59.

As for U12C U45C A77U U96A, the self-cleavage was 0.16. U12G A117G G122A: the self-cleavage amounted to 1.5. In the case of U13A U100C U108C it was 1.35; in that of U12C U26G G35A U73A, 1.31; in that of U13A U39C G97A, 0.04.

In the case of U13C A22G U104A U108C, the self-cleavage stood at 0.88. On to U12C U29C U109C G127A A129U, for which the self-cleavage amounted to 0.69. For the variant U12C U52C U134C, the self-cleavage was found to be 1.84. Turning to U12C U13C C76U U87C U109C, the self-cleavage is 0.34. In the case of U12G A77G U134A it was 1.34. On to U12C U39C U62A A141G, for which the self-cleavage worked out at 0.03.

Take U12G U26C C66U: the self-cleavage came out at 0.1. For the variant U12G A64G A140G, the self-cleavage is 0.22.

For U13A C98U U102C U115A U132A, the self-cleavage worked out at 0.26. Take U13A U39C A79G A107G A142G: the self-cleavage came out at 0.48.

Turning to U12C U13A A107G C113G, the self-cleavage amounted to 0.45. As for U13A U46C G122U, the self-cleavage came out at 1.14.

Regarding U12G A22U G34C C118U, the self-cleavage turned out to be 1.11. Consider U12C U85A U96C, for which the self-cleavage was 0.08. In the case of U12C U87C U108A it was 0.53. With U12C U52A A107G, the self-cleavage amounted to 0. With U12G A43G U130C, the self-cleavage was 1.02. With U12G A30U A67G U87C G88A A117C, the self-cleavage was 0.

Regarding U12C U13A U100C, the self-cleavage turned out to be 1.97. In the case of U12C U47C U143A it was 0.67.
